Laboratory results taken from the supplement of paper PMC4166925.
± gives the standard deviation of the averaged measurements. Over roughly 33,000 sequences, “E-score (dimensionless, -0.5 to 0.5)” has its median near -0.049; the highest 2% begin near 0.37. The list shows a part of the results.

system: T1, PmTbr T-box DNA-binding domain (GST fusion); assay: PBM E-score of 8-mer (E-score (dimensionless, -0.5 to 0.5)); Tbr is Tbrain of the sea star Patiria miniata (Pm) or the sea urchin Strongylocentrotus purpuratus (Sp); higher = stronger binding preference; most listed sequences are background and not binding sites; conditions: the construct has about 5 more residues each side
T1 sequence: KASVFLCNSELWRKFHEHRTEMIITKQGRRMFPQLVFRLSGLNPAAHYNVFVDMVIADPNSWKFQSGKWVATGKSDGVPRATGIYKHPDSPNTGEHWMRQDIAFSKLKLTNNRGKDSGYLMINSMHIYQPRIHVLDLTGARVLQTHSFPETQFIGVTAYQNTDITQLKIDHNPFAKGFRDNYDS
Procedure: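 Universal protein-binding microarray (Agilent AMADID 016060, 60-bp probes with a 35-bp variable region) incubated with 200 nM GST-fused Patiria miniata Tbr T-box DNA-binding domain (residues 272-466) in PBS pH 7.5. Scored for every ungapped 8-mer (given with its reverse complement) by the Universal PBM Analysis Suite as E-score (modified Wilcoxon-Mann-Whitney enrichment, range -0.5 to 0.5; >0.45 counts as bound) and Z-score of median probe intensity. Two replicate arrays (datasets 1 and 2).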

Row | Sequence | PBM E-score of 8-mer
1 | AAAGCATA | -0.036 ± 0.079
2 | CATATTCC | -0.0721 ± 0.054
3 | CAGGTACA | -0.15 ± 0.0089
4 | GGGCTCCA | -0.348 ± 0.018
5 | ATGTACAC | -0.148 ± 0.084
6 | CCCGGGGC | -0.198 ± 0.11
7 | CCCTGACG | -0.0465 ± 0.0053
8 | GAACCATC | -0.106 ± 0.059
9 | CACGCGGA | 0.0819 ± 0.038
10 | GCGGATAA | -0.0267 ± 0.011
11 | AACTCAGT | -0.226 ± 0.0079
12 | GACCAAAA | -0.0705 ± 0.052
13 | ATTGGCTG | -0.151 ± 0.0097
14 | GGATTCAC | 0.116 ± 0.02
15 | AGGCCTCC | -0.154 ± 0.012
16 | CGGCTCAA | -0.267 ± 0.042
17 | TCACCTCA | 0.437 ± 0.00059
18 | TATTGTAA | 0.0639 ± 0.12
19 | AGCCCTAG | -0.107 ± 0.038
20 | GCTAACCA | 0.201 ± 0.04
21 | CGTGATGA | 0.26 ± 0.025
22 | ATGCTAAT | 0.0347 ± 0.061

Row | Sequence | PBM E-score of 8-mer
23 | CATTAAAA | -0.256 ± 0.028
24 | GGAGGCCC | -0.437 ± 0.0096
25 | CGCCGGGC | 0.0263 ± 0.062
26 | AAGTCGCT | 0.202 ± 0.026
27 | GAGCTTAC | -0.0863 ± 0.054
28 | CTTCGAGC | 0.0317 ± 0.071
29 | AAAATCTC | 0.00161 ± 0.011
30 | GCCAAGAC | -0.0776 ± 0.0095
31 | CTGACCAC | 0.0865 ± 0.013
32 | ATTCGCCA | 0.197 ± 0.0034
33 | CCAAACTC | -0.173 ± 0.0097
34 | AACGCTCG | 0.0744 ± 0.0061
35 | CGACCTAC | -0.13 ± 0.0019
36 | ACCCGCGC | 0.122 ± 0.013
37 | GATGGGGC | -0.271 ± 0.044
38 | GGCCTACA | -0.189 ± 0.039
39 | AAAATCGC | 0.23 ± 0.068
40 | CGGGGAAC | -0.25305 ± 7.1e-05
41 | CCGTACAG | -0.29 ± 0.039
42 | GTTACTAA | -0.0205 ± 0.024
43 | CTGTTCGC | 0.308 ± 0.019
44 | CTGGGGTA | -0.225 ± 0.061

Row | Sequence | PBM E-score of 8-mer
45 | GCCCACCC | -0.139 ± 0.014
46 | ATACCGTA | 0.0236 ± 0.061
47 | GTCGGGTA | 0.104 ± 0.031
48 | GGGTCTAA | 0.0575 ± 0.065
49 | CTTAGATA | -0.182 ± 0.059
50 | AATCGCCT | 0.00429 ± 0.12
51 | ATGGCCAT | -0.1523 ± 0.00071
52 | GTTGTGAA | 0.366 ± 0.038
53 | ACGGGAAT | -0.0525 ± 0.023
54 | CTATTGTC | 0.0205 ± 0.07
55 | TCCTCTCA | 0.118 ± 0.008
56 | GATGGAAA | 0.0118 ± 0.041
57 | ACCAAGTA | 0.0125 ± 0.031
58 | ACGGCAGG | 0.193 ± 0.061
59 | ATTTACTA | -0.2083 ± 0.00086
60 | GTATATGA | -0.042 ± 0.022
61 | GGGTTCAA | -0.184 ± 0.037
62 | ATTTTTCG | 0.151 ± 0.05
63 | CCGGATAA | -0.134 ± 0.034
64 | GTTGGAGA | -0.153 ± 0.0022
65 | CTCTCCCA | 0.112 ± 0.042
66 | ACGATAGG | -0.185 ± 0.12

Row | Sequence | PBM E-score of 8-mer
67 | AGAGTAAC | -0.0608 ± 0.011
68 | GACGTTAA | -0.151 ± 0.047
69 | TCAACTAA | -0.029 ± 0.11
70 | GTCTGGCA | 0.0395 ± 0.072
71 | AACTTAGG | -0.142 ± 0.0089
72 | GGGTGCGA | 0.4765 ± 0.0031
73 | TGTTCAAA | -0.0799 ± 0.071
74 | CCGAAAAA | -0.2382 ± 0.00024
75 | CCATACAA | -0.0606 ± 0.041
76 | AAAAATCA | 0.0406 ± 0.14
77 | GTTCAGGA | 0.0662 ± 0.068
78 | GAGACGAC | -0.104 ± 0.03
79 | CAAATTAC | 0.0272 ± 0.12
80 | CTTAGGAA | -0.24 ± 0.011
81 | CACTTTCC | 0.304 ± 0.011
82 | ACCCGAAG | 0.0968 ± 0.022
83 | GCGTTAGC | 0.343 ± 0.013
84 | ACCGTAGT | -0.0513 ± 0.01
85 | TGTGTAAA | 0.227 ± 0.022
86 | ATGAATTC | 0.0097 ± 0.0095
